# These are yes or no findings as the source states them, for the method shown. Binding seen in cells or lysates may run through a third protein. Some entries that bind do so weakly or less than the wild type. Sequences can lack the tags named with a protein.
# Protein sequences, listed by entry. Tags and fused reporters are not part of them.
# UniProt O82481: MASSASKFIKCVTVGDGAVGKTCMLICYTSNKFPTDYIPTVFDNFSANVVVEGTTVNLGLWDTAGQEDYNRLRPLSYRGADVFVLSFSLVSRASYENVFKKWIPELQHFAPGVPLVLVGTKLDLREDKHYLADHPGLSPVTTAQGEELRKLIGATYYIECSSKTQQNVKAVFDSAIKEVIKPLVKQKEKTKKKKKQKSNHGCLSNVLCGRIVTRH
# T1: ICR5-YC (interactor of constitutively active ROP 5 fused to the C-terminal half of YFP) (Arabidopsis) (UniProt Q8VYU8)
# T1 sequence: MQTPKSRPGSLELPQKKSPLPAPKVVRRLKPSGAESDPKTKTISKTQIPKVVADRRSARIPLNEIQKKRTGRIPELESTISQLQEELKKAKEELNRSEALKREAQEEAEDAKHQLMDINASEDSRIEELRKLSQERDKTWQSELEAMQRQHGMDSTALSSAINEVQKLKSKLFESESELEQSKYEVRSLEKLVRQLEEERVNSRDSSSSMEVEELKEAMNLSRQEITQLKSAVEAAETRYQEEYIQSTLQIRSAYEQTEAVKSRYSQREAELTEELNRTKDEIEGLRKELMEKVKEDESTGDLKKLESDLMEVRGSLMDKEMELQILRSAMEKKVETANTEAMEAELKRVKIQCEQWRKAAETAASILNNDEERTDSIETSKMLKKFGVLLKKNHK
# B1: ICR3-YC (interactor of constitutively active ROP 3 fused to the C-terminal half of YFP) (protein, UniProt Q9LSS5 1-564)
# chain: MQTQKARNGSPDVPKKVSPRAARPLKIAALEPESSSSPISATNRTPKDKSPNVLNRRSPRSPVSEKKRPSRITELELLVSQLQEELKKAKDQISVSETSKKQAEQEAEESRKQLQEVSSKLEESQNQFVETSALEEETDKTGSLVFQSVSQECDWEFSATAGERAGLAAVAHEIRQLKLQIEMVASSEAGHVKQAELYNSEVQLLRGNLMDTLFHVENFRNQLKDCEISEAETEALATETLRQLENAKKAVEELKSDGTKAVESYKKMAVELEQSKSRMVWLEALVNKLQNNPADLENHEILLKDYESLRRGESNEMDEEVSSLRCEVERLRAALEASDKKDQEGNVEASSRLRIQAELQSELKIAKSEIDELKARLMDKETELQFISEERDNFSMKLMKNQKEIDVEAELKKLREAIENLKADLMDKETELQIVSDENETLKSDIHKSETDVQDAFLKLGIAMEEADKSSKKAVRVTEQLEATQASNSEMETELRKLKVQSNQWRKAAEAATAMLSAGNNGKFAENYNQTNSPYSEDIDDELTKKKNGNVLKKIGVLWKKPQK
# Key:
# Assay in all cases: split reporter; BiFC with halves of YFP (YN, YC), transient expression in N. benthamiana leaf epidermis cells; confocal imaging, for some panels lambda scan 521-690 nm and linear unmixing of the YFP signal
# [1] = biological target: ICR3-YC (interactor of constitutively active ROP 3 fused to the C-terminal half of YFP) (Arabidopsis) (UniProt Q9LSS5)
# [2] = biological target: T1, ICR5-YC (interactor of constitutively active ROP 5 fused to the C-terminal half of YFP) (Arabidopsis)
# [3] = biological target: YN-ROP11 (UniProt O82481)
binder,measurement,setting,value
B1,binding,[1],no binding
same,binding,[2],no binding
same,binding,[3],binds

# — PMC9845754
